{
  "source": "PubChem BioAssay AID485281",
  "about": "(National Center for Advancing Translational Sciences (NCATS), 2010)",
  "note": "Values joined by “and” are separate entries in the source; they are usually repeats but may differ in a detail not shown here. Identical values can stand only once. The campaign covered roughly 350,000 compounds. About 260 (0.074%) were called active. The shares of active, inactive and inconclusive entries below differ from those in the screen. The call rests on the fitted dose curve; in most records, active means well fitted inhibition curve with a large enough effect; inconclusive means small, poorly fitted or top-dose-only effect; inactive means no such curve, though single readings can be large or run the other way. Potencies beside an inconclusive call are fits to weak or partial responses and may not hold up. On the % scale 0 is the no-effect control and ±100 the full control effect; potency means the concentration at half of the fitted maximal effect; tags describe the fitted curve by direction and shape.",
  "data": [
    {"biological_target": "Ferritin light chain (Equus caballus) (UniProt P02791)", "sequence (P02791 whole entry, looked up)": "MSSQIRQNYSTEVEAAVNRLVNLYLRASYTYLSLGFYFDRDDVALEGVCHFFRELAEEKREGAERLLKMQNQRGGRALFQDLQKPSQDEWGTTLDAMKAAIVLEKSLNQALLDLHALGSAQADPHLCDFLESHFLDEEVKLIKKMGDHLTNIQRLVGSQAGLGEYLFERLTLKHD", "test": "qHTS Assay for Identification of Novel General Anesthetics; further: nearly all actives have a fitted effect of over 20% in size", "conditions": "apoferritin/1-aminoanthracene competitive binding, fluorescence; activity change, negative = displacement: at 77.5 µM (top of the series)", "outline": "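Read-out: endpoint 1-AMA fluorescence, excitation 380 nm and emission 535 nm, after compounds sit 10 min at room temperature with 10 uM horse-spleen apoferritin in 50% saturated 1-AMA/PBS. Values come from four-parameter Hill fits.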", "values": [
      {"smiles": "COc1ccc(OC)c(NC(=O)CN2CCCN(Cc3ccccc3Cl)S2(=O)=O)c1", "activity change, negative = displacement": "inactive: -1.58%"},
      {"smiles": "Cc1ccc(NC(=O)c2ccc3c(c2)C(=O)N(CC2CCCO2)C3=O)cc1C", "note": "(stereo unspecified)", "Potency": "inconclusive: 35.5 µM [inhibitor, partial curve]"},
      {"smiles": "Cc1cc(Br)ccc1S(=O)(=O)NCc1ccccc1", "Potency": "inconclusive: 28.2 µM [inhibitor, partial curve]"},
      {"smiles": "COc1cc(OC)c(C(=O)/C=C/c2ccc(OCc3ccccc3)c(OC)c2)c(OC)c1", "Potency": "inconclusive: 22.4 µM [inhibitor, partial curve]"},
      {"smiles": "CN(C)S(=O)(=O)N1CCN(c2ccc([N+](=O)[O-])c(N3CCCCC3)c2)CC1", "Potency": "inconclusive: 22.4 µM [inhibitor, partial curve]"},
      {"smiles": "CC(Cc1ccccc1)C(=O)Nc1ccccc1", "note": "(stereo unspecified)", "Potency": "inconclusive: 39.8 µM [inhibitor, single point] and inconclusive: 28.2 µM [inhibitor, partial curve]"},
      {"smiles": "COc1ccccc1C(=O)Nc1c(C(=O)N(CCN(C)C)Cc2ccco2)oc2ccccc12", "Potency": "inconclusive: 35.5 µM [inhibitor, partial curve]"},
      {"smiles": "CN(C)CCCN(C(=O)c1ccc(S(=O)(=O)N(C)Cc2ccccc2)cc1)c1nc2c(F)cccc2s1", "Potency": "inconclusive: 22.4 µM [inhibitor, partial curve]"},
      {"smiles": "Cc1c(/C=C/C(=O)c2ccc(O)cc2)cnn1C", "activity change, negative = displacement": "inactive: -12.7%"},
      {"smiles": "O=C1NC(c2ccc(Br)cc2)Oc2ccccc21", "note": "(stereo unspecified)", "Potency": "inconclusive: 12.6 µM [inhibitor, partial curve]"},
      {"smiles": "CCOC(=O)C1CCCN(C(=O)c2cn(CC)c3ccc(S(=O)(=O)N(C)C)cc3c2=O)C1", "note": "(stereo unspecified)", "activity change, negative = displacement": "inactive: -10.9%"},
      {"smiles": "CSc1ncc(Cl)c(C(=O)Nc2ccc(S(=O)(=O)N3CCC(C)CC3)cc2)n1", "Potency": "inconclusive: 12.6 µM [inhibitor, partial curve]"},
      {"smiles": "Cc1ccc(Nc2nc(N)nc(CSc3ncccn3)n2)cc1", "activity change, negative = displacement": "inactive: -17.3%"},
      {"smiles": "COc1ccc(-c2cc(C(F)(F)F)nc(-n3cc(Br)cn3)n2)cc1", "activity change, negative = displacement": "inactive: -11.9%"},
      {"smiles": "Cn1nnnc1SCCNCc1ccccc1OCc1ccccc1F", "activity change, negative = displacement": "inactive: -5.56%"},
      {"smiles": "CC1(c2ccccc2)NC(=O)N(CC(=O)Nc2cccc(C#N)c2)C1=O", "note": "(stereo unspecified)", "Potency": "inconclusive: 17.8 µM [inhibitor, partial curve]"},
      {"smiles": "CSc1nc(C)cc(Nc2c(C)cc(C)cc2C)n1", "Potency": "inconclusive: 25.1 µM [inhibitor, single point]"},
      {"smiles": "O=S1(=O)CCN(Cc2ccccc2C(F)(F)F)CC1", "activity change, negative = displacement": "inactive: -6.67%"},
      {"smiles": "COC(=O)c1ccc(CSc2nc(C(F)(F)F)c3c(c2C#N)CCC3)o1", "Potency": "inconclusive: 35.5 µM [inhibitor, partial curve]"},
      {"smiles": "COc1ccc(NC(=S)N2CCN(c3ccccn3)CC2)cc1", "activity change, negative = displacement": "inactive: -5.49%"},
      {"smiles": "CCCCCOc1ccc(Cn2ccnc2)cc1[N+](=O)[O-]", "Potency": "inconclusive: 39.8 µM [inhibitor, single point]"},
      {"smiles": "CCc1ccc(OCCCSc2nc(-c3ccc(C(C)(C)C)cc3)nc3cc(=O)[nH]n23)cc1", "Potency": "inconclusive: 56.2 µM [inhibitor, partial curve]"},
      {"smiles": "O=C1C2CC=CCC2C(=O)N1c1ccc(N2CCN(c3ccccn3)CC2)c([N+](=O)[O-])c1", "note": "(stereo unspecified)", "Potency": "inconclusive: 10 µM [inhibitor, partial curve]"},
      {"smiles": "CCCOc1cccc(-c2cc(C(=O)N/N=C/c3ccccn3)c3ccccc3n2)c1", "Potency": "inconclusive: 56.2 µM [inhibitor, partial curve, poor fit]"},
      {"smiles": "COc1cccc(CSc2nc3n(n2)C(c2cccs2)C(C(=O)Nc2ccccc2C)=C(C)N3)c1", "note": "(stereo unspecified)", "activity change, negative = displacement": "inactive: -0.808%"},
      {"smiles": "C/C(N)=C(/C#N)C(=O)COC(=O)c1ccc(C)c(S(=O)(=O)N2CCCCC2)c1", "Potency": "inconclusive: 31.6 µM [inhibitor, partial curve]"},
      {"smiles": "C[C@@]1(C(NS(=O)(=O)c2cccc3cccnc23)c2ccc(-c3ccccc3)cc2)C[C@H]1C1CCCCC1", "note": "(stereo partly specified)", "Potency": "inconclusive: 3.55 µM [inhibitor, full curve]"},
      {"smiles": "COc1ccc([C@@H]2[C@@H]3C(=O)N(C(C)(C)C)C(=O)[C@@H]3[C@]3(CC(C)C)C(=O)N(c4ccccc4)C(=O)N23)cc1", "Potency": "inconclusive: 22.4 µM [inhibitor, partial curve]"},
      {"smiles": "O=C(CCc1ccccc1)NC1C2CC3CC(C2)CC1C3", "note": "(stereo unspecified)", "Potency": "inconclusive: 22.4 µM [inhibitor, partial curve]"},
      {"smiles": "CCOC(=O)C1(CC2CC2)CCN(C(=O)c2cc(C)nc3ccc(CC)cc23)CC1", "Potency": "inconclusive: 39.8 µM [inhibitor, single point]"},
      {"smiles": "CCC(C)C(=O)Nc1nc(-c2ccc3c(c2)NC(=O)CO3)cs1", "note": "(stereo unspecified)", "Potency": "inconclusive: 22.4 µM [inhibitor, partial curve]"},
      {"smiles": "CC(C)(C)OC(=O)N1CCC(c2c(C(=O)NCc3ccc(F)cc3)cnn2-c2ccc(F)cc2)CC1", "Potency": "inconclusive: 25.1 µM [inhibitor, partial curve]"},
      {"smiles": "CCOC(=O)c1c(C)oc2nc(C)nc(N3CCN(c4ccc(C(C)=O)cc4)CC3)c12", "activity change, negative = displacement": "inactive: -7.6%"},
      {"smiles": "COc1ccc(C2=NO[C@@H]3C(=O)N(c4ccc(C)cc4C)C(=O)[C@H]23)cc1OC", "Potency": "inconclusive: 31.6 µM [inhibitor, single point]"},
      {"smiles": "Cc1ccc(NC(=O)COC(=O)/C=C/c2cccc(Cl)c2)cc1S(=O)(=O)N1CCOCC1", "Potency": "inconclusive: 8.91 µM [inhibitor, full curve]"},
      {"smiles": "Cc1oc(C(C)(C)C)cc1C(=O)NCc1ccc2c(c1)OCO2", "Potency": "inconclusive: 44.7 µM [inhibitor, single point]"},
      {"smiles": "Cc1ccc(-c2cn3c(n2)sc2cc(C(=O)NCCCN4CCCCC4)ccc23)cc1", "Potency": "inconclusive: 12.6 µM [inhibitor, partial curve]"},
      {"smiles": "COc1ccc(C(=O)Nc2cc(-c3cccc(C)c3)nn2-c2ccccc2)cc1", "activity change, negative = displacement": "inactive: 45.2%"},
      {"smiles": "COc1cc(SC)ccc1C(=O)NCCOc1ccc(Cl)cc1", "activity change, negative = displacement": "inactive: -6.97%"},
      {"smiles": "COc1ccc([N+](=O)[O-])cc1NC(=O)CSCc1ccccc1C", "Potency": "inconclusive: 39.8 µM [inhibitor, single point]"},
      {"smiles": "O=C(O)CC(NC(=O)c1sc2ccccc2c1Cl)c1ccc(OC2CCCC2)cc1", "note": "(stereo unspecified)", "Potency": "inconclusive: 25.1 µM [inhibitor, partial curve]"},
      {"smiles": "Nc1sc2c(c1C(=O)c1ccccc1)CCCC2", "Potency": "inconclusive: 25.1 µM [inhibitor, partial curve]"},
      {"smiles": "Cc1ccc(C2NC(=O)c3ccccc3O2)cc1", "note": "(stereo unspecified)", "Potency": "inconclusive: 39.8 µM [inhibitor, single point]"},
      {"smiles": "O=c1c(/C=N/O)c(Nc2ccccc2)nc2ccccn12", "Potency": "inconclusive: 25.1 µM [inhibitor, partial curve]"},
      {"smiles": "O=C(NCc1ccc(F)cc1)Nc1cccc(Cl)c1", "Potency": "inconclusive: 28.2 µM [inhibitor, partial curve]"},
      {"smiles": "COc1cc(/C=C(\\C#N)c2nc3ccc(C)cc3[nH]2)c([N+](=O)[O-])cc1OC", "Potency": "inconclusive: 28.2 µM [inhibitor, partial curve]"},
      {"smiles": "CCSc1nc2sc3c(c2c(=O)n1CC)CC(C)(C)OC3", "Potency": "inconclusive: 44.7 µM [inhibitor, single point]"},
      {"smiles": "Cc1ccccc1C(=O)c1cccn1CC(=O)O", "activity change, negative = displacement": "inactive: -9.8%"},
      {"smiles": "O=C(COC(=O)CNS(=O)(=O)/C=C/c1ccccc1)NC1CCS(=O)(=O)C1", "note": "(stereo unspecified)", "Potency": "inconclusive: 39.8 µM [inhibitor, single point]"},
      {"smiles": "O=C(NCc1ccncc1)Nc1cc(Cl)ccc1Cl", "Potency": "inconclusive: 28.2 µM [inhibitor, partial curve]"},
      {"smiles": "CCCCC(CC)C(=O)NCc1ccccc1OC", "note": "(stereo unspecified)", "Potency": "inconclusive: 50.1 µM [inhibitor, single point]"},
      {"smiles": "CCCCCOP(=O)(OCCCCC)C1(NS(=O)(=O)c2ccccc2)C=CC(=O)c2ccccc21", "note": "(stereo unspecified)", "Potency": "inconclusive: 7.94 µM [inhibitor, partial curve]"},
      {"smiles": "CCOc1ccc(NC(=O)N2CC=C(c3c[nH]c4ccccc34)CC2)cc1", "activity change, negative = displacement": "inactive: -5.2%"},
      {"smiles": "Cc1ccc(C)c(N(C)S(=O)(=O)c2cccc3nsnc23)c1", "Potency": "inconclusive: 28.2 µM [inhibitor, partial curve]"},
      {"smiles": "CC1=C(c2ccc(C)c(C)c2)S(=O)(=O)N=C1N1CCC(C(=O)NCCc2ccc(Cl)cc2)CC1", "Potency": "inconclusive: 1.58 µM [inhibitor, full curve]"},
      {"smiles": "Cc1ccc(S(=O)(=O)Cc2ccc(C(=O)N3CCN(c4ccc(F)cc4)CC3)o2)cc1", "Potency": "inconclusive: 50.1 µM [inhibitor, single point]"},
      {"smiles": "COC(=O)c1ccc(Cl)cc1NC(=O)N1CCCn2nc(C)cc21", "Potency": "inconclusive: 3.98 µM [inhibitor, single point]"},
      {"smiles": "COc1nc(-c2ccc(C)cc2)ccc1-c1noc(-c2ccccc2Br)n1", "activity change, negative = displacement": "inactive: 1.35%"},
      {"smiles": "O=c1c2cccnc2n(Cc2ccccc2F)c(=O)n1Cc1ccccc1Cl", "activity change, negative = displacement": "inactive: -1.11%"},
      {"smiles": "COc1ccc(-n2c(SCC(=O)N/N=C(\\C)c3cccnc3)nc3ccccc3c2=O)cc1", "activity change, negative = displacement": "inactive: -13.4%"},
      {"smiles": "Cc1ccc(NS(=O)(=O)Cc2ccccc2)cc1Cl", "Potency": "inconclusive: 22.4 µM [inhibitor, partial curve]"},
      {"smiles": "COc1ccc(C(=O)NNC(=O)Cc2ccc([N+](=O)[O-])cc2)cc1", "activity change, negative = displacement": "inactive: -1.7%"},
      {"smiles": "CN1CCN(C(c2ccc(C(F)(F)F)cc2)c2cc(Cl)c3cccnc3c2O)CC1", "note": "(stereo unspecified)", "Potency": "inconclusive: 39.8 µM [inhibitor, partial curve]"},
      {"smiles": "Cc1nc(SCc2ccc(OCCC(C)C)cc2)n[nH]1", "Potency": "inconclusive: 35.5 µM [inhibitor, partial curve]"},
      {"smiles": "S=C(Nc1ccc(Cl)cc1)NC1CCCCC1", "activity change, negative = displacement": "inactive: 3.06%"},
      {"smiles": "CCCc1c(C)nn(C(=O)/C(C#N)=N/Nc2ccccc2[N+](=O)[O-])c1C", "Potency": "inconclusive: 28.2 µM [inhibitor, partial curve]"}
    ]}
  ]
}
